In article PMC5451543:
Residue numbers refer to the chain shown, from its start. Results are given in words; binding and its absence hold for the method and conditions named. In cells and extracts the contact can be indirect. Some results given as binding are weak or reduced against the parent protein; the word gives no strength. For some assays here: Where a sequence is shown, tags or fusion partners need not be part of it.

Amino acid sequences for entries named in this document (tags omitted).
UniProt O00487: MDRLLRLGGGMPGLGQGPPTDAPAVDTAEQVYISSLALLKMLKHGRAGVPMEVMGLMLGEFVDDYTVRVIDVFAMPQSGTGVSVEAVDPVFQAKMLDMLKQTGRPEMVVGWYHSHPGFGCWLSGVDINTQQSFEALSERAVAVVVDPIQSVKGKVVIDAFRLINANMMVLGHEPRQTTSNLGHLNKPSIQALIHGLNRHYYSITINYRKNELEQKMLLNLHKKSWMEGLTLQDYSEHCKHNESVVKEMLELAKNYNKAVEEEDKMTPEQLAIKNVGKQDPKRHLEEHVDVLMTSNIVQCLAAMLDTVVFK
UniProt Q9BRP4: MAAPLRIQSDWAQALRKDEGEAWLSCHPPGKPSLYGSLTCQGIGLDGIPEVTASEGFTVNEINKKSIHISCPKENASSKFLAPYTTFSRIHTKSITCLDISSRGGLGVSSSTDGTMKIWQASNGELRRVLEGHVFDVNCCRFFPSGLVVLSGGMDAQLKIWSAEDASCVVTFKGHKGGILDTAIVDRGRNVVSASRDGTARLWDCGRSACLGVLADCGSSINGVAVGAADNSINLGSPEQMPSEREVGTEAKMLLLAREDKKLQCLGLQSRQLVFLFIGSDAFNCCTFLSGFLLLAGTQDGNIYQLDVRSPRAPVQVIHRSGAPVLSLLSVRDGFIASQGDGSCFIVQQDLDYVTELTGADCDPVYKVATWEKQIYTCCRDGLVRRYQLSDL
UniProt P55036: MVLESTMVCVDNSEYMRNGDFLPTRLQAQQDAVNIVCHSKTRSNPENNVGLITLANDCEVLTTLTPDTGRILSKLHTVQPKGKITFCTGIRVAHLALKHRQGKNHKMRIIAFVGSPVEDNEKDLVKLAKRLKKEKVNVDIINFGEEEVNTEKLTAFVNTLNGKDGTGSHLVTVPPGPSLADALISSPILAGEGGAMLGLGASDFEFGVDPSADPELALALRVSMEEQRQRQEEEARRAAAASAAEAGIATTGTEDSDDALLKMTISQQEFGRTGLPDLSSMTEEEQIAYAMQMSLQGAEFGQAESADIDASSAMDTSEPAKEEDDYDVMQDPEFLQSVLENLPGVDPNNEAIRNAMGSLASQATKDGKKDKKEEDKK
UniProt P62191: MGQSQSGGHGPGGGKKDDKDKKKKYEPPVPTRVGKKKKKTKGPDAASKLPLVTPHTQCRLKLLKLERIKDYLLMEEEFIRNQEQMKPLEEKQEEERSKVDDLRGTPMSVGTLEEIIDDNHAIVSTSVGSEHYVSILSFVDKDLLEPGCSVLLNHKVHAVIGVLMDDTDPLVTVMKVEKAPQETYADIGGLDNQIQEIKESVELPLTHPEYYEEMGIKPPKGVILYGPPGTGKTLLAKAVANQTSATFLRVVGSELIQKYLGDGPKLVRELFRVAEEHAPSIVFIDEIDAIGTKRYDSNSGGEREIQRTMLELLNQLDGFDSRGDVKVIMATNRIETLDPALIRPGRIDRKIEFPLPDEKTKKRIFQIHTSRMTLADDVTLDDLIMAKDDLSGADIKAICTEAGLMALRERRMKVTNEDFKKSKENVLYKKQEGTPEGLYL
UniProt P62195: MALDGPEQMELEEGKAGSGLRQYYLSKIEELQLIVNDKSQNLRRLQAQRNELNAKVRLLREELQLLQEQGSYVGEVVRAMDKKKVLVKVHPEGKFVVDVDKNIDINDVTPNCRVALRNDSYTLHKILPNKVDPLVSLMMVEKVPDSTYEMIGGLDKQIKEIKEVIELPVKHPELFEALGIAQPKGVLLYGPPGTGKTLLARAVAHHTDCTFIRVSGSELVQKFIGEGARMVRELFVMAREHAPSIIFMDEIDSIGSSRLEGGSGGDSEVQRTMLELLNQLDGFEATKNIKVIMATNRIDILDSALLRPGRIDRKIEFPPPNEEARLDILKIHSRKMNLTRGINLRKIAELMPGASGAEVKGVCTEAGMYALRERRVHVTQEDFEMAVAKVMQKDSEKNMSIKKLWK
UniProt Q13200: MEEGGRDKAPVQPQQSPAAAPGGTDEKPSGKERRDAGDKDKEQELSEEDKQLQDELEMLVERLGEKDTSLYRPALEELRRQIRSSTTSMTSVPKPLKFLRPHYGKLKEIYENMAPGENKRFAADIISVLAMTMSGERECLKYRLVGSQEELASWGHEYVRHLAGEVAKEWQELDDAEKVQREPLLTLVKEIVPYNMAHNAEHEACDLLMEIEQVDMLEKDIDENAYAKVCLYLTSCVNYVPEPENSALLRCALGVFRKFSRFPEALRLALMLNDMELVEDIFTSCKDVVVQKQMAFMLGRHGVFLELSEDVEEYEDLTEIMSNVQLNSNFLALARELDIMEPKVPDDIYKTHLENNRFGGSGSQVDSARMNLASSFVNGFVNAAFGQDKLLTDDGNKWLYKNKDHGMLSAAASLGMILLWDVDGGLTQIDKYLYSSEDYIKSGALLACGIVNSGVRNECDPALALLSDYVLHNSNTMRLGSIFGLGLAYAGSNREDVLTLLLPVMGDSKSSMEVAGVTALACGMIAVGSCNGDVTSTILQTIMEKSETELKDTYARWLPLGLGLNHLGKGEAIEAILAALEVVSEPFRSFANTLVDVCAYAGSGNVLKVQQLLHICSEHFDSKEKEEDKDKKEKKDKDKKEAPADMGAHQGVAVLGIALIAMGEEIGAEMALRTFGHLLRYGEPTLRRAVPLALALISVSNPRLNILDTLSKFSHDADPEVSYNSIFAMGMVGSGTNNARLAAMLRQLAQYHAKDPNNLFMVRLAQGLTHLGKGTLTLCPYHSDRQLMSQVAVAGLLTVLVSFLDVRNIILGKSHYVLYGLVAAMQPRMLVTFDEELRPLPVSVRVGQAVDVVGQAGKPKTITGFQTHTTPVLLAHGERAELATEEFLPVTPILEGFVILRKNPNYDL
UniProt P35998: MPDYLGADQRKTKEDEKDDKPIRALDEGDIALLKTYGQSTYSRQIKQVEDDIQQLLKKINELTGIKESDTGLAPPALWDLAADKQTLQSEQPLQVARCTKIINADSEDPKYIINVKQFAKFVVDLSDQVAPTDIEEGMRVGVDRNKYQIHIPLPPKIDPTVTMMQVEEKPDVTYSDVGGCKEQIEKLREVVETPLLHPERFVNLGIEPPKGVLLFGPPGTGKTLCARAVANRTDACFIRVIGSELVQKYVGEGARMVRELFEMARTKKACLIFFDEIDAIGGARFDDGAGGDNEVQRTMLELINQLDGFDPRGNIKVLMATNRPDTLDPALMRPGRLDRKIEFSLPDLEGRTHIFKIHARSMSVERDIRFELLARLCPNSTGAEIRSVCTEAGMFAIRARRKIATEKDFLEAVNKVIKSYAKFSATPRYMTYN
UniProt Q16401: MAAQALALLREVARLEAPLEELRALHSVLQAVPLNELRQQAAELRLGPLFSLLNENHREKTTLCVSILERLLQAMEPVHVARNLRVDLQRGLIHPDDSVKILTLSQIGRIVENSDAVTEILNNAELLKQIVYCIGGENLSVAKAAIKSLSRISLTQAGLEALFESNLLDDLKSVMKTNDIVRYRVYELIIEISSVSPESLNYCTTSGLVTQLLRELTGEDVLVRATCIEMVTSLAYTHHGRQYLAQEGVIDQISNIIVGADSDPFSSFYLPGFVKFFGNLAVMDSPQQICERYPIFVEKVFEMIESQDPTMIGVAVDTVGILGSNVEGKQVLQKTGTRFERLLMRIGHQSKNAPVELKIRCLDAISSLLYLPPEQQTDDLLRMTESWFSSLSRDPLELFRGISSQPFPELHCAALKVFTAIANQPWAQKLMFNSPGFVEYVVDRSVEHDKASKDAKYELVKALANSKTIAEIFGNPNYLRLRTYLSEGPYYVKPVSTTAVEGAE

Key:
GST-DDAA (human) = target: T1, GST-DDAA (human) (UniProt Q8WVY7); test: pull-down; GST fusion protein purified from E. coli with in vitro translated FLAG-tagged protein from rabbit reticulocyte lysate; bound protein detected with anti-FLAG antibody; only the target purified
T1 sequence: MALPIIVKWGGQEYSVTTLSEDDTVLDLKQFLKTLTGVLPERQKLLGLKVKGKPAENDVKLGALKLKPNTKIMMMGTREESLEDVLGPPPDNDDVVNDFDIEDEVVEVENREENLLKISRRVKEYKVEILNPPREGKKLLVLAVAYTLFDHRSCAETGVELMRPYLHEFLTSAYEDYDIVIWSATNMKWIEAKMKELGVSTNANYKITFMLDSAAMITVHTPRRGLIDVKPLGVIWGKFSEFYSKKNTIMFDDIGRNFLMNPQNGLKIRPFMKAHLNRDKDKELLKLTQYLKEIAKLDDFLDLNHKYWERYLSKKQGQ

GST-UBLCP1 (human) = target: T2, GST-UBLCP1 (human) (UniProt Q8WVY7); test: as above
T2 sequence: T1 sequence with A143D, A145D

GST-UBL (human) = target: T3, GST-UBL (human) (UniProt Q8WVY7); test: as above
T3 sequence: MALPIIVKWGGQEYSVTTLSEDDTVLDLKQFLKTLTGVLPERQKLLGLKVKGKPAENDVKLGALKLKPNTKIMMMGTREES

GST-ΔUBL (human) = target: T4, GST-ΔUBL (human) (UniProt Q8WVY7); test: as above
T4 sequence: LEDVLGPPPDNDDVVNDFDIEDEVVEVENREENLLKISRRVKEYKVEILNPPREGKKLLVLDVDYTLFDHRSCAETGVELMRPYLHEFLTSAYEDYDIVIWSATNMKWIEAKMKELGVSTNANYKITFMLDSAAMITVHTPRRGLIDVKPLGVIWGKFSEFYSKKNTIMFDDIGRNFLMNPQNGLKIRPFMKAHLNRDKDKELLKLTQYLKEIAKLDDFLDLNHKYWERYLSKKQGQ

HTBH-tagged Rpn11 = HTBH-tagged Rpn11 (UniProt O00487); test: pull-down; streptavidin–agarose pull-down of HTBH-tagged Rpn11 from stable HEK293T cells co-transfected with FLAG-tagged subunits or chaperones and HA-UBLCP1 or HA-DDAA; western blot
FLAG-p27 (human) = target: T5, FLAG-p27 (human) (UniProt O00233); test: co-IP; HEK293T co-transfected with tagged proteins; FLAG lysis buffer (300 mM NaCl, 25 mM Tris–HCl pH 7.5, 2 mM EDTA, 1% Triton X-100); IP with anti-FLAG antibody, western blot; some panels with UBLCP1 knockout, siRpn1 or HA-Rpn1 overexpression
T5 sequence: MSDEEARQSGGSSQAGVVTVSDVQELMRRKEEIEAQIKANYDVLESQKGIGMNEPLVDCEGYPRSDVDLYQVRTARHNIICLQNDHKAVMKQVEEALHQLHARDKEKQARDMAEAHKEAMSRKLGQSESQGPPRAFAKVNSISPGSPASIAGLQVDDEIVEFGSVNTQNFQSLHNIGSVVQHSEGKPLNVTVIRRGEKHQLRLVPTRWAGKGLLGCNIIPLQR

FLAG-PAAF1 (human) = FLAG-PAAF1 (human) (UniProt Q9BRP4); test: as above
FLAG-Rpn10 (human) = FLAG-Rpn10 (human) (UniProt P55036); test: as above
[1] = target: T6, endogenous UBLCP1 (human (endogenous in HEK293T)) (UniProt Q8WVY7); test: co-IP; endogenous proteins; HEK293T lysates, IP with anti-UBLCP1 antibody or control rabbit IgG
T6 sequence: T1 sequence with A143D, A145D

binding (GST-DDAA (human))	binding (GST-UBLCP1 (human))	Substance	other results
binds weakly	binds weakly	FLAG-PAAF1, in vitro translated (from UniProt Q9BRP4 1-392)	
binds weakly	binds weakly	FLAG-Rpt2, in vitro translated (from UniProt P62191 1-440)	
binds weakly	binds weakly	FLAG-Rpt3, in vitro translated (from UniProt P43686 1-418)	
binds weakly	binds weakly	FLAG-Rpt6, in vitro translated (from UniProt P62195 1-406)	

Second part, the substance before the results:

Substance	binding (GST-DDAA (human))	binding (GST-UBLCP1 (human))	other results
FLAG-Rpn1, in vitro translated (from UniProt Q13200 1-908)	binds	binds	binding (GST-UBL (human)): binds; binding (GST-ΔUBL (human)): no binding
FLAG-Rpt1 (from UniProt P35998 1-433)			binding (HTBH-tagged Rpn11): binds
FLAG-Rpt1, in vitro translated (from UniProt P35998 1-433)	binds weakly	binds weakly	
FLAG-S5b (from UniProt Q16401 1-504)			binding (HTBH-tagged Rpn11): binds
HA-Rpt1 (from UniProt P35998 1-433)			binding (FLAG-p27 (human)): binds; binding (FLAG-PAAF1 (human)): binds; binding (FLAG-Rpn10 (human)): binds
endogenous Rpn1 (from UniProt Q13200 1-908)			binding [1]: binds
